In the supplement of paper PMC5919970:
Counter-ions that a name gives are not always drawn. The full ranking holds about 2,000 compounds; the median of “fractional viability relative to vehicle” is about 0.91, and the lowest 2% start at about 0.045. This is one part of the list.

Test system: TYKNU
Assay: fractional viability relative to vehicle; TYKNU is a high-grade serous ovarian cancer line; higher = less growth inhibition
Details: 72 h
Outline: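 TYKNU control cells or lentiCRISPRv2 knockout derivatives were seeded at 500 cells per well into drug-stamped 384-well plates holding a ~2100-compound library at 2 or 10 μM, in duplicate. Cells were grown at 37 °C in 5% CO2 in RPMI 1640 with 10% FBS, and drug treatment lasted 72 h. Viability was read by Cell Titer Glo luminescence. Duplicate treatment wells were averaged and normalised to duplicate control wells from the same plate position.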

[1] = 2uM, genotype: DNM1L knockout (sgDNM1L #1)
[2] = 2uM, genotype: sgCTRLA1 (non-targeting control)
[3] = 10uM, genotype: DNM1L knockout (sgDNM1L #1)
[4] = 10uM, genotype: sgCTRLA1 (non-targeting control)

CN(C)C(=O)Oc1cc(OC(=O)N(C)C)cc(C(O)CNC(C)(C)C)c1 (centres undefined) [Bambuterol HCl]
fractional viability [1]: 0.866 | fractional viability [2]: 0.949 | fractional viability [3]: 0.742 | fractional viability [4]: 0.907

CCN(C)C(=O)Oc1cccc([C@H](C)N(C)C)c1 [Rivastigmine Tartrate]
fractional viability [1]: 0.961 | fractional viability [2]: 1.07 | fractional viability [3]: 0.875 | fractional viability [4]: 1

CCC1(c2ccc(N)cc2)CCC(=O)NC1=O (centres undefined) [Aminoglutethimide]
fractional viability [1]: 1.08 | fractional viability [2]: 1.1 | fractional viability [3]: 1.02 | fractional viability [4]: 0.968

C[C@@H]1O[C@@H](O[C@H]2C[C@@H](O)[C@]3(CO)[C@H]4[C@H](O)C[C@]5(C)[C@@H](C6=CC(=O)OC6)CC[C@]5(O)[C@@H]4CC[C@]3(O)C2)[C@H](O)[C@H](O)[C@H]1O [Ouabain]
fractional viability [1]: 0.05 | fractional viability [2]: 0.0369 | fractional viability [3]: 0.0346 | fractional viability [4]: 0.0311

NCC(O)c1ccc(O)cc1 (racemic) [(+,-)-Octopamine HCl]
fractional viability [1]: 1.06 | fractional viability [2]: 1.1 | fractional viability [3]: 0.781 | fractional viability [4]: 1.15

NC(=O)CN1CCCC1=O [Piracetam]
fractional viability [1]: 1.25 | fractional viability [2]: 1.06 | fractional viability [3]: 0.956 | fractional viability [4]: 0.98

O=P1(NCCCl)OCCCN1CCCl (centres undefined) [Ifosfamide]
fractional viability [1]: 1.04 | fractional viability [2]: 1.03 | fractional viability [3]: 0.935 | fractional viability [4]: 0.974

CC[C@@H]1/C=C/C=C/C[C@H](C)[C@H](O)[C@](C)(O)C(=O)[C@H](C)[C@@H](O)[C@H](C)C(=O)[C@H](C)[C@@H](O)[C@H](C)/C=C/C(=O)O[C@H]2[C@@H](C)[C@@H](CC1)O[C@@]1(CC[C@@H](C)[C@@H](C[C@H](C)O)O1)[C@@H]2C [Oligomycin A]
fractional viability [1]: 0.691 | fractional viability [2]: 0.555 | fractional viability [3]: 0.422 | fractional viability [4]: 0.413

CC(C)(C)[C@]1(O)CC2OC(=O)CC23C(=O)OC2OC(=O)[C@H](O)C231 (some centres undefined) [Bilobalide]
fractional viability [1]: 0.854 | fractional viability [2]: 1.09 | fractional viability [3]: 0.975 | fractional viability [4]: 1.11

Cc1cc(SCc2sc(-c3ccc(C(F)(F)F)c(F)c3)nc2C)ccc1OCC(=O)O
fractional viability [1]: 0.782 | fractional viability [2]: 1.02 | fractional viability [3]: 0.769 | fractional viability [4]: 0.768

O=C(O[C@H]1C[N+]2(CCCOc3ccccc3)CCC1CC2)C(O)(c1cccs1)c1cccs1 [Aclidinium Bromide]
fractional viability [1]: 1.23 | fractional viability [2]: 1.02 | fractional viability [3]: 0.871 | fractional viability [4]: 0.952

CN[C@@H]1C[C@H]2O[C@@](C)([C@@H]1OC)n1c3ccccc3c3c4c(c5c6ccccc6n2c5c31)C(=O)NC4 [Staurosporine]
fractional viability [1]: 0.092 | fractional viability [2]: 0.066 | fractional viability [3]: 0.0336 | fractional viability [4]: 0.0269

O=C1CCC[C@@H]2[C@H]3CCCN4CCC[C@@H](CN12)[C@@H]34 [(+)-Matrine]
fractional viability [1]: 0.865 | fractional viability [2]: 1.03 | fractional viability [3]: 0.795 | fractional viability [4]: 1

Cc1cccc(C)c1NC1=NCCCS1 [Xylazine HCl]
fractional viability [1]: 0.893 | fractional viability [2]: 1.25 | fractional viability [3]: 0.802 | fractional viability [4]: 1.11

O=C(Oc1ccc([N+](=O)[O-])cc1)N1CCC(C(O)(c2ccc3c(c2)OCO3)c2ccc3c(c2)OCO3)CC1
fractional viability [1]: 0.783 | fractional viability [2]: 1.08 | fractional viability [3]: 0.68 | fractional viability [4]: 1.09

C[C@@H]1CC[C@H]2[C@@H](C)C(=O)O[C@@H]3O[C@@]4(C)CC[C@@H]1[C@]32OO4 [Artemisinin]
fractional viability [1]: 0.798 | fractional viability [2]: 0.942 | fractional viability [3]: 0.722 | fractional viability [4]: 0.857

Cc1c(Cl)c(OCC(=O)N2CCN(C)CC2)nc2sc(C(=O)NC3CC3)c(N)c12
fractional viability [1]: 0.691 | fractional viability [2]: 1 | fractional viability [3]: 0.801 | fractional viability [4]: 0.737

C/C=C(\C)C(=O)N[C@@H](c1ccccc1)[C@@H](O)C(=O)O[C@H]1C[C@@]2(O)[C@@H](OC(=O)c3ccccc3)[C@@H]3[C@]4(OC(C)=O)CO[C@@H]4C[C@H](O)[C@@]3(C)C(=O)[C@H](OC(C)=O)C(=C1C)C2(C)C [Cephalomannine]
fractional viability [1]: 0.16 | fractional viability [2]: 0.192 | fractional viability [3]: 0.184 | fractional viability [4]: 0.194

CCC(COC(=O)c1cc(OC)c(OC)c(OC)c1)(c1ccccc1)N(C)C (centres undefined) [Trimebutine]
fractional viability [1]: 0.973 | fractional viability [2]: 1.04 | fractional viability [3]: 0.853 | fractional viability [4]: 0.994

NCCc1c[nH]c2ccc(O)cc12 [Serotonin HCl]
fractional viability [1]: 0.85 | fractional viability [2]: 1 | fractional viability [3]: 0.903 | fractional viability [4]: 0.986

COc1ccc(C[C@H]2NC[C@H](O)[C@H]2OC(C)=O)cc1 [Anisomycin]
fractional viability [1]: 0.109 | fractional viability [2]: 0.0785 | fractional viability [3]: 0.118 | fractional viability [4]: 0.0319

COc1ccc2c(c1)/C(=C/c1cnc[nH]1)C(=O)N2
fractional viability [1]: 1.01 | fractional viability [2]: 0.927 | fractional viability [3]: 0.454 | fractional viability [4]: 0.378

C[C@@]12N[C@@H](Cc3ccccc31)c1ccccc12 [(-)-MK 801 Maleate]
fractional viability [1]: 1.15 | fractional viability [2]: 1.15 | fractional viability [3]: 0.771 | fractional viability [4]: 1.01

Cc1cccc([C@H](C)c2c[nH]cn2)c1C [Dexmedetomidine]
fractional viability [1]: 1.06 | fractional viability [2]: 1.23 | fractional viability [3]: 0.8 | fractional viability [4]: 1.05

C#C[C@]1(O)C=C[C@H]2[C@@H]3CCC4=CC(=O)CC[C@@H]4[C@H]3CC[C@@]21CC [Gestodene]
fractional viability [1]: 1.13 | fractional viability [2]: 1.04 | fractional viability [3]: 0.861 | fractional viability [4]: 0.945

NCC(=O)O.[C-]#[O+].[C-]#[O+].[C-]#[O+].[Cl][Ru]
fractional viability [1]: 0.755 | fractional viability [2]: 1.02 | fractional viability [3]: 0.821 | fractional viability [4]: 0.739
